According to the supplement of paper PMC8728848:
This is one part of the list.

Legend:
Assay in all cases: glycan array binding signal (z-score within array); higher = stronger binding
Conditions in all cases: glycan notation: IUPAC condensed, linker removed
Fuc(a1-2)Gal = biological target: Fuc(a1-2)Gal
Summary of the method: (§1)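 Negative Z-scores can be read as non-binding. The Z-score is calculated within each array and then averaged across arrays of one protein sequence at different concentrations or buffers and across linkers. Arrays, 3228 in all, were curated from the Consortium for Functional Glycomics database and kept only where the protein sequence was available.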

Fuc(a1-2)Gal(b1-3)GalNAc = biological target: Fuc(a1-2)Gal(b1-3)GalNAc
Summary of the method: as §1

[1] = biological target: Fuc(a1-2)Gal(b1-3)GalNAc(b1-3)Gal
Summary of the method: as §1

[2] = biological target: Fuc(a1-2)Gal(b1-3)GalNAc(b1-3)Gal(a1-4)Gal(b1-4)Glc
Summary of the method: as §1

[3] = biological target: Fuc(a1-2)Gal(b1-3)GalNAc(b1-4)[Neu5Ac(a2-3)]Gal(b1-4)Glc
Summary of the method: as §1

Fuc(a1-2)Gal(b1-3)GlcNAc = biological target: Fuc(a1-2)Gal(b1-3)GlcNAc
Summary of the method: as §1

[4] = biological target: Fuc(a1-2)Gal(b1-3)GlcNAc(b1-3)Gal(b1-4)Glc
Summary of the method: as §1

[5] = biological target: Fuc(a1-2)Gal(b1-3)[Fuc(a1-4)]GlcNAc
Summary of the method: as §1

Fuc(a1-2)Gal(b1-4)Glc = biological target: Fuc(a1-2)Gal(b1-4)Glc
Summary of the method: as §1

Fuc(a1-2)Gal(b1-4)GlcNAc = biological target: Fuc(a1-2)Gal(b1-4)GlcNAc
Summary of the method: as §1

[6] = biological target: Fuc(a1-2)Gal(b1-4)GlcNAc(b1-3)Gal(b1-4)GlcNAc
Summary of the method: as §1

[7] = biological target: Fuc(a1-2)Gal(b1-4)GlcNAc(b1-3)Gal(b1-4)GlcNAc(b1-3)Gal(b1-4)GlcNAc
Summary of the method: as §1

[8] = biological target: Fuc(a1-2)Gal(b1-4)[Fuc(a1-3)]GlcNAc
Summary of the method: as §1

[9] = biological target: Fuc(a1-2)Gal(b1-4)[Fuc(a1-3)]GlcNAc(b1-3)Gal(b1-4)[Fuc(a1-3)]GlcNAc
Summary of the method: as §1

[10] = biological target: Fuc(a1-2)Gal(b1-4)[Fuc(a1-3)]GlcNAc(b1-3)Gal(b1-4)[Fuc(a1-3)]GlcNAc(b1-3)Gal(b1-4)[Fuc(a1-3)]GlcNAc
Summary of the method: as §1

Fuc(a1-2)GlcNAc = biological target: Fuc(a1-2)GlcNAc
Summary of the method: as §1

Fuc(a1-2)[Gal(a1-3)]Gal = biological target: Fuc(a1-2)[Gal(a1-3)]Gal
Summary of the method: as §1

[11] = biological target: Fuc(a1-2)[Gal(a1-3)]Gal(b1-3)GlcNAc
Summary of the method: as §1

[12] = biological target: Fuc(a1-2)[Gal(a1-3)]Gal(b1-4)Glc
Summary of the method: as §1

[13] = biological target: Fuc(a1-2)[Gal(a1-3)]Gal(b1-4)GlcNAc
Summary of the method: as §1

[14] = biological target: Fuc(a1-2)[Gal(a1-3)]Gal(b1-4)[Fuc(a1-3)]GlcNAc
Summary of the method: as §1

[15] = biological target: Fuc(a1-2)[Gal(a1-4)]Gal(b1-4)GlcNAc
Summary of the method: as §1

[16] = biological target: Fuc(a1-2)[GalNAc(a1-3)]Gal
Summary of the method: as §1

[17] = biological target: Fuc(a1-2)[GalNAc(a1-3)]Gal(b1-3)GlcNAc
Summary of the method: as §1

[18] = biological target: Fuc(a1-2)[GalNAc(a1-3)]Gal(b1-4)Glc
Summary of the method: as §1

[19] = biological target: Fuc(a1-2)[GalNAc(a1-3)]Gal(b1-4)GlcNAc
Summary of the method: as §1

[20] = biological target: Fuc(a1-2)[GalNAc(a1-3)]Gal(b1-4)[Fuc(a1-3)]GlcNAc
Summary of the method: as §1

[21] = biological target: Fuc(a1-2)[GalNAc(a1-4)]Gal(b1-4)GlcNAc
Summary of the method: as §1

[22] = biological target: Fuc(a1-2)[GalNAc(b1-3)]Gal
Summary of the method: as §1

Fuc(a1-3)GlcNAc = biological target: Fuc(a1-3)GlcNAc
Summary of the method: as §1

[23] = biological target: Fuc(a1-3)[Gal(b1-4)]GlcNAc
Summary of the method: as §1

[24] = biological target: Fuc(a1-3)[Gal(b1-4)]GlcNAc(b1-4)Gal(b1-4)[Fuc(a1-3)]GlcNAc
Summary of the method: as §1

[25] = biological target: Fuc(a1-3)[Gal(b1-4)]GlcNAc(b1-4)Gal(b1-4)[Fuc(a1-3)]GlcNAc(b1-4)Gal(b1-4)[Fuc(a1-3)]GlcNAc
Summary of the method: as §1

[26] = biological target: Fuc(a1-3)[Gal3S(b1-4)]GlcNAc
Summary of the method: as §1

[27] = biological target: Fuc(a1-3)[GalNAc(b1-4)]GlcNAc
Summary of the method: as §1

Fuc(a1-4)GlcNAc = biological target: Fuc(a1-4)GlcNAc
Summary of the method: as §1

Fuc(b1-3)GlcNAc = biological target: Fuc(b1-3)GlcNAc
Summary of the method: as §1

Gal(a1-2)Gal = biological target: Gal(a1-2)Gal
Summary of the method: as §1

Gal(a1-3)Gal = biological target: Gal(a1-3)Gal
Summary of the method: as §1

Gal(a1-3)Gal(b1-3)GlcNAc = biological target: Gal(a1-3)Gal(b1-3)GlcNAc
Summary of the method: as §1

Gal(a1-3)Gal(b1-4)Glc = biological target: Gal(a1-3)Gal(b1-4)Glc
Summary of the method: as §1

Gal(a1-3)Gal(b1-4)GlcNAc = biological target: Gal(a1-3)Gal(b1-4)GlcNAc
Summary of the method: as §1

[28] = biological target: Gal(a1-3)Gal(b1-4)[Fuc(a1-3)]GlcNAc
Summary of the method: as §1

Gal(a1-3)GalNAc = biological target: Gal(a1-3)GalNAc
Summary of the method: as §1

[29] = biological target: Gal(a1-3)[Gal(a1-4)]Gal(b1-4)GlcNAc
Summary of the method: as §1

B1: LKPARMA (Neurospora crassa) (protein)
chain: MSFHVTAEDARRIEVRDNRTILFARLRREDGEWNDASYELDQIIGNNDGHFQWGGGQNFTETAEDIRFHPKEGAAEQPILRARLRDCNGEFHDRDVNLTEIVENVNGEFQAKF
- glycan array binding signal (z-score) (Fuc(a1-2)Gal): -0.25
- glycan array binding signal (z-score) (Fuc(a1-2)Gal(b1-3)GalNAc): -0.249
- glycan array binding signal (z-score) [1]: -0.252
- glycan array binding signal (z-score) [2]: -0.175
- glycan array binding signal (z-score) [3]: -0.18
- glycan array binding signal (z-score) (Fuc(a1-2)Gal(b1-3)GlcNAc): -0.25
- glycan array binding signal (z-score) [4]: 4.48
- glycan array binding signal (z-score) [5]: -0.252
- glycan array binding signal (z-score) (Fuc(a1-2)Gal(b1-4)Glc): -0.249
- glycan array binding signal (z-score) (Fuc(a1-2)Gal(b1-4)GlcNAc): -0.249
- glycan array binding signal (z-score) [6]: -0.249
- glycan array binding signal (z-score) [7]: -0.205
- glycan array binding signal (z-score) [8]: -0.07
- glycan array binding signal (z-score) [9]: -0.238
- glycan array binding signal (z-score) [10]: -0.14
- glycan array binding signal (z-score) (Fuc(a1-2)GlcNAc): -0.249
- glycan array binding signal (z-score) (Fuc(a1-2)[Gal(a1-3)]Gal): -0.247
- glycan array binding signal (z-score) [11]: -0.249
- glycan array binding signal (z-score) [12]: -0.251
- glycan array binding signal (z-score) [13]: -0.252
- glycan array binding signal (z-score) [14]: -0.06
- glycan array binding signal (z-score) [15]: -0.239
- glycan array binding signal (z-score) [16]: -0.247
- glycan array binding signal (z-score) [17]: -0.251
- glycan array binding signal (z-score) [18]: -0.246
- glycan array binding signal (z-score) [19]: -0.252
- glycan array binding signal (z-score) [20]: -0.246
- glycan array binding signal (z-score) [21]: -0.133
- glycan array binding signal (z-score) [22]: -0.241
- glycan array binding signal (z-score) (Fuc(a1-3)GlcNAc): -0.165
- glycan array binding signal (z-score) [23]: -0.248
- glycan array binding signal (z-score) [24]: -0.077
- glycan array binding signal (z-score) [25]: -0.232
- glycan array binding signal (z-score) [26]: -0.239
- glycan array binding signal (z-score) [27]: -0.247
- glycan array binding signal (z-score) (Fuc(a1-4)GlcNAc): -0.246
- glycan array binding signal (z-score) (Fuc(b1-3)GlcNAc): -0.251
- glycan array binding signal (z-score) (Gal(a1-2)Gal): -0.249
- glycan array binding signal (z-score) (Gal(a1-3)Gal): -0.223
- glycan array binding signal (z-score) (Gal(a1-3)Gal(b1-3)GlcNAc): -0.252
- glycan array binding signal (z-score) (Gal(a1-3)Gal(b1-4)Glc): -0.25
- glycan array binding signal (z-score) (Gal(a1-3)Gal(b1-4)GlcNAc): -0.249
- glycan array binding signal (z-score) [28]: -0.251
- glycan array binding signal (z-score) (Gal(a1-3)GalNAc): -0.248
- glycan array binding signal (z-score) [29]: -0.245
